From PubChem BioAssay (NCATS)
Where “and” joins values, the source holds several entries; their conditions need not be identical. Identical values can stand only once. This list was built around the results that the source calls inconclusive (neither active nor inactive); the mix of calls is not that of the screen. Potencies of inconclusive entries are doubtful fits and often do not repeat. Calls of active or inactive are those of the source. The call rests on the fitted dose curve; in most records, active means well fitted inhibition curve with a large enough effect; inconclusive means small, poorly fitted or top-dose-only effect; inactive means flat fitted curve, though single readings scatter.

Test: qHTS for Inhibitors of Plasmodium falciparum (HB3) proliferation (AID 504318); further: nearly all actives have a fitted effect of over 60% in size
Conditions: P. falciparum HB3 in erythrocytes, SYBR Green DNA, 72 h; series mostly up to 7.21 µM
Outline: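 Erythrocytes infected with P. falciparum line (0.3% parasitemia, 2.5% hematocrit final) incubated with compounds 72 h at 37 °C, 5% CO2; SYBR Green lysis buffer added, fluorescence read next day. Normalized to 0.29 uM artemisinin and DMSO.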
Potency means the concentration at half of the fitted maximal effect; tags describe the fitted curve by direction and shape.

Potency, active:
COC(=O)CC=C[C@@H](C)[C@H](O)c1ccccc1Br 1.9 µM, COC(=O)N1C2=C(c3ccccc3[C@@H]1CC(=O)Nc1ccc3cc4ccccc4cc3c1)[C@@H]1C(=O)N(c3ccccc3)C(=O)[C@@H]1[C@H](C)C2 1.69 µM, COC(=O)N1C2CC(=O)O[C@@H]3c4cc5c(cc4[C@]1(C)[C@@]3(Br)c1ccccc12)OCO5 1.9 µM

Potency, inactive:
COC(=O)CCC(=O)OC1(C)C(=O)C=C2C=C(C3CC3)N(CC3CC3)C=C2C1=O (stereo not drawn), O=C(NN=C1C[C@@H](O)[C@H](O)[C@H]2[C@@H]3C(=O)N(Cc4ccc5c(c4)OCO5)C(=O)[C@@H]3CC[C@H]12)OCc1ccccc1, COc1ccc2c(c1)[C@@]1(OCCC=C[C@@H]1C)C(=O)N2CC=C(C)CCC=C(C)C

Potency, inconclusive:
COC(=O)C1=C(C)N(Cc2ccccc2)C(=NCC2CC2)NC1c1cccc(C(F)(F)F)c1 (stereo not drawn) 1.69 µM [inhibitor, single point], COC(=O)C1=C(C(=O)OC)[C@@H]2Nc3ccccc3[C@@]23C[C@@H](C(=O)OC)N(S(=O)(=O)c2ccc4c(c2)OCCN4C)C3=N1 1.9 µM [inhibitor, single point], COC(=O)C1=C(C(=O)OC)[C@@H]2N(C)c3ccccc3[C@@]23C[C@@H](C(=O)OC)N(S(=O)(=O)c2ccc(C(F)(F)F)cc2)C3=N1 4.26 µM [inhibitor, single point], C=CCN1c2ccccc2[C@]23C[C@@H](C(=O)OC)N(S(=O)(=O)c4ccc(C(F)(F)F)cc4)C2=NC(C(=O)OC)=C(C(=O)OC)[C@H]13 4.26 µM [inhibitor, single point], COC(=O)C1=C(C(=O)OC)[C@@H]2N(C)c3ccccc3[C@@]23C[C@@H](C(=O)OC)N(S(=O)(=O)c2ccc(Br)cc2)C3=N1 4.26 µM [inhibitor, single point], CC#CCN1c2ccccc2[C@]23C[C@@H](C(=O)OC)N(C(=O)C4CCC4)C2=NC(C(=O)OC)=C(C(=O)OC)[C@H]13 2.13 µM [inhibitor, single point], COc1ccc(-c2nc3c(c4c2C[C@H](c2ccccc2)OC4)CN(C(=O)C2CCCCC2)CC3)c(C)c1 1.69 µM [inhibitor, single point], C[C@H]1Cc2c(COc3ccccc3)nc3c(c2CO1)CN(C(=O)c1ccco1)CC3 2.69 µM [inhibitor, single point], C=CCN1c2ccccc2[C@]23C[C@@H](C(=O)OC)N(S(=O)(=O)c4ccc5c(c4)OCCN5C)C2=NC(C(=O)OC)=C(C(=O)OC)[C@H]13 4.26 µM [inhibitor, single point], CC(CCN1CCc2nc(-c3ccccc3)c(-c3ccccc3)cc2C1)=NOC[C@@H](O)[C@H]1O[C@@H]2OC(C)(C)O[C@H]2[C@@H]1O 1.69 µM [inhibitor, single point], COC(=O)C1=C(C(=O)OC)[C@@H]2N(Cc3ccccc3)c3ccccc3[C@@]23C[C@@H](C(=O)OC)N(C(=O)c2ccc(Br)cc2)C3=N1 1.51 µM [inhibitor, single point], COC(=O)[C@@H]1CC[C@H](C)[C@@H](c2ccc(C)cc2)N1C(=O)c1ccc(C=NOC[C@@H](O)[C@H]2O[C@@H]3OC(C)(C)O[C@H]3[C@@H]2O)cc1 1.69 µM [inhibitor, partial curve], COC(=O)C1=C(C(=O)OC)[C@@H]2Nc3ccccc3[C@@]23C[C@@H](C(=O)OC)N(C(=O)CC(C)C)C3=N1 2.13 µM [inhibitor, partial curve], COC(=O)C1=C(C(=O)OC)[C@@H]2Nc3ccccc3[C@@]23C[C@@H](C(=O)OC)N(S(=O)(=O)c2ccc(C#N)cc2)C3=N1 4.26 µM [inhibitor, single point], COc1ccc(-c2nc3c(c4c2C[C@H](c2ccccc2)OC4)CN(C(=O)c2ccco2)CC3)c(C)c1 1.51 µM [inhibitor, single point] and 1.9 µM [inhibitor, single point], COC(=O)C1=C(C(=O)OC)[C@@H]2Nc3ccccc3[C@@]23C[C@@H](C(=O)OC)N(S(=O)(=O)c2ccc(Br)cc2)C3=N1 4.26 µM [inhibitor, single point], COC(=O)C1=C(C(=O)OC)[C@@H]2Nc3ccccc3[C@@]23C[C@@H](C(=O)OC)N(S(=O)(=O)c2ccc([N+](=O)[O-])cc2)C3=N1 1.9 µM [inhibitor, single point], CC#CCN1c2ccccc2[C@]23C[C@@H](C(=O)OC)N(C(=O)c4cc(C)oc4C)C2=NC(C(=O)OC)=C(C(=O)OC)[C@H]13 2.13 µM [inhibitor, single point], CC#CCN1c2ccccc2[C@]23C[C@@H](C(=O)OC)N(S(=O)(=O)c4ccc(OC)cc4)C2=NC(C(=O)OC)=C(C(=O)OC)[C@H]13 2.13 µM [inhibitor, single point], CCCCS(=O)(=O)N1CCc2nc(-c3ccccc3)c3c(c2C1)CO[C@@H](C)C3 4.15 µM [inhibitor, single point], CC#CCN1c2ccccc2[C@]23C[C@@H](C(=O)OC)N(S(=O)(=O)c4ccc(Br)cc4)C2=NC(C(=O)OC)=C(C(=O)OC)[C@H]13 1.9 µM [inhibitor, single point], COc1cc2c(c(OC)c1OC)[C@@]1(c3ccccc3)CCCCC[C@H]1[C@@H]2NC(=O)C(F)(F)F 4.26 µM [inhibitor, single point]
